Results: ChEMBL document CHEMBL4888484, “Replenishing the malaria drug discovery pipeline: Screening and hit evaluation of the MMV Hit Generation Library 1 (HGL1) against asexual blood stage Plasmodium falciparum ,using a nano luciferase reporter read-out” (2022)
In all, about 150,000 compounds went through this assay and about 540 (0.36%) showed an effect of 50% or more. This is one part of the list.

system: Plasmodium falciparum; experiment: Primary screen in NF54 nanoGlo assay, in single point, at 2uM, 72h; a lower Z score goes with more inhibition; assay type: functional, Erythrocyte; conditions: timepoint 72 hour

Row | SMILES | % Inhibition [%] | Z score
1 | C[C@]1(O)CCN(C(=O)C(F)(F)c2ccccn2)C1 | -10 | 1.46
2 | CN(C)c1cncc(O[C@H]2CCN(C(=O)NCc3ccc4c(c3)OCO4)C2)n1 | -5 | 0.54
3 | O=C(Cc1cnn(-c2ccccc2)c1)N[C@H]1CCN(c2ncccc2Cl)C1 | -4 | 0.42
4 | COc1ccnc(N(C)Cc2ccc(N)nc2)n1 | 2 | -0.35
5 | COc1nc(N2CCN(c3cccc(C(F)(F)F)c3)CC2)ncc1C(=O)NCCCN1CCOCC1 | -17 | 1.61
6 | Cc1coc(-c2cc(NCc3c[nH]nc3-c3cccnc3)ccc2C)n1 | 0 | -0.04
7 | CCOC(=O)c1cn(CC)c2cc(NC3CCCCC3)c(F)cc2c1=O | 67 | -12.03
8 | Cc1ccc(CC(=O)NCC(C)(C)C(N)=O)s1 | -3 | 0.55
9 | Cc1cc(-c2nc3ncccc3o2)ccc1NC(=O)c1cccc2c(Br)cccc12 | -12 | 1.35
10 | COCCn1c(Cc2nc(C)cs2)nnc1N1CC2(CCC2)OC[C@@H]1C | 2 | -0.35
11 | COc1ccc2c(c1)CCc1c(C(=O)N3CCN(c4ccccn4)CC3)n[nH]c1-2 | -1 | 0.15
12 | CN(C)c1nc(N)nc(CN2CCOc3ccc(F)cc32)n1 | 39 | -5.3
13 | Cc1c(C(=O)N2CCC(CCN3CCCC[C@@H]3C)CC2)nnn1-c1cccc2cccnc12 | -2 | 0.27
14 | CC1CCC(N(C(=O)c2cc(C3CC3)[nH]n2)C2CC2)CC1 (stereo unspecified) | -5 | 0.76
15 | O=C(N[C@H](c1ccccc1)c1nc2ccccc2[nH]1)c1cc(=O)[nH]c2ccccc12 | -13 | 1.59
16 | CCC(CC)(CNC(=O)OC(C)(C)C)NC(=O)Cn1cc(C)cn1 | -16 | 2.49
17 | O=C(c1cn(CCc2ccccc2)nn1)N1CCC[C@H](OCc2ccccc2)C1 | -1 | 0.09
18 | c1cncc(-c2cccc(CNC3CC3)c2)c1 | -1 | 0.15
19 | Cn1cncc1CCC(=O)Nc1ccnn1[C@H]1CCCc2ccccc21 | 5 | -0.57
20 | CCOc1ccc(C(=O)Nc2nc3cc4c(cc3s2)OCCO4)cn1 | -13 | 1.36
21 | O=c1cc(-c2ccccc2)nc2n1CCCN2 | -5 | 0.71
22 | O=C(Cc1ccccc1)N1N=C2CCCCC2C1(O)C(F)(F)F (stereo unspecified) | 0 | -0.07

Row | SMILES | % Inhibition [%] | Z score
23 | O=S(=O)(Cc1ccc(C(F)F)cc1)Cc1nc(C2CC2)n[nH]1 | -19 | 2.24
24 | COc1cnc(N(C)C(=O)C2CCC(F)(F)CC2)nc1 | -6 | 0.65
25 | O=C(C[C@H]1CCCN1C(=O)c1cncc(O)c1)c1ccc(F)cc1 | 2 | -0.22
26 | COc1cc(Cl)c(CN2CCC[C@H](CCC(=O)N3CCOCC3)C2)cc1OC | -3 | 0.46
27 | CN(CCC(=O)N1C[C@@H]2CC[C@H]1CN(c1ncccn1)C2)S(C)(=O)=O | 9 | -1.26
28 | Cc1cccc(Cn2nc(C)cc2NC(=O)Cc2nonc2C)c1 | -4 | 0.84
29 | O=C(Nc1cc(C2CC2)nn1[C@H]1CCS(=O)(=O)C1)c1cscn1 | 9 | -1.28
30 | Cn1cccc(C(=O)N2CCN(C(=O)c3cc4n(n3)CCCC4)CC2)c1=O | -7 | 1.02
31 | Cc1ccc([C@H](C)NC(=O)c2ncccc2C)nc1 | 3 | -0.47
32 | O=C(Cn1c([C@H](Cc2ccccc2)NC(=O)c2ccccc2)nc2ccccc21)c1ccccc1 | -5 | 0.56
33 | Cc1c(CC(=O)N(CC2CCC2)c2ccccc2)cnn1C | -11 | 1.15
34 | O=C(OCc1ccccn1)C1CCN(S(=O)(=O)c2ccc(Cl)cc2)CC1 | -11 | 1.4
35 | Cc1cc(C(=O)N[C@@H]2COC(C)(C)C2)n(C2CCOCC2)n1 | 3 | -0.34
36 | CCc1nc(CN2C(=O)COc3ccc(S(=O)(=O)N4CCC(Cc5ccccc5)CC4)cc32)no1 | 2 | -0.4
37 | O=S(=O)(Nc1cnc(N2CCCC2)nc1)c1ccccc1Cl | -10 | 1.84
38 | CNc1ccnc(N2CC[C@@]3(CCCN(Cc4ccc(F)c(F)c4)C3)C2)n1 | 1 | -0.2
39 | CC(C)CC(=O)N1CCC[C@H](c2nc(-c3ccccc3)c[nH]2)C1 | -4 | 0.67
40 | CCCc1nc(CNc2ncnc3sc(C(=O)O)c(C)c23)cs1 | -4 | 0.66
41 | CN(Cc1cnc(NCc2ccccc2)nc1)[C@@H]1CCCC[C@@H]1O | 14 | -1.96
42 | CC(C)c1nsc(NCCc2cncn2C)n1 | -1 | 0.08
43 | CNCc1cc(C)n(-c2cc(S(=O)(=O)N3CCOCC3)ccc2N2CCCC2)c1C | -1 | 0.09
